This sample is rich in variants without activity.
B1: tRNA (parent)
chain: CUCUCGGUAGCCAAGUUGGUUUAAGGCGCAAGACUUUAAUUUAUCACUACGAAAUCUUGAGAUCGGGCGUUCGACUCGCCCCCGGGAGAUUUUUUCCUCGAGCAA

Variants of: B1
Experiment: nonsense suppression (GFP-seq) (ratio to wild type); higher = more function; SUP4oc tRNA, yeast GFP reporter sort-seq
In short: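 Each variant's nonsense suppression (GFPSEQ) is a cell-share-weighted bin median GFP/RFP relative to the unmutated parent tRNA. Yeast with genome-integrated tRNA variants from a ~3% random-mutation library, a galactose-driven GFP ochre reporter and RFP were grown in raffinose/galactose medium with 80 mg/L adenine, then sorted into GFP/RFP bins for Illumina sequencing. Variants needed ≥100 reads and ≥30 cells.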

Nonsense suppression, ≤ 0.026:
CUCUCGGUAGACAAGUUGGUUUAAGGCGCAAGACUUUAAUUUAUCACUACGAAAUCUUGAGAUCAGGCGUUCGUCUCGCCCCCGGGAGAUUUUUUCCUCGAGCAA [C11A G65A A74U]
CUCUCGGUAGACAAGUUGGUUUAAGGCGCAAGACUUUAAUUUAUCACUACGAAAUCUUGAGAUCGAGCGUUCGACUCGCCCCCGGGAGAUUUUUUCCUCGAGCAA [C11A G66A]
CUCUCGGUAGACAAGUUGGUUUAAGGCGCAAGACUUUAAUUUAUCACUACGAAAUCUUGAGAUCGUGGGUUCGACUCGCCCCCGGGAGAUUUUUUCCUCGAGCAA [C11A G66U C68G]
CUCUCGGUAGACAAGUUGGUUUAAGGCGCAAGACUUUAAUUUAUCACUACGAAAUCUUGAGAUCGGGCGUUCGACUCCCCCCCGGGAGAUUUUUUCCUCGAGCAA [C11A G78C]
CUCUCGGUAGACAAGUUGGUUUAAGGCGCAAGACUUUAAUUUAUCACUACGAAAUCUUGAGAUCGGGCGUUCGACUCGCCCCCUGGAGAUUUUUUCCUCGAGCAA [C11A G84U]
CUCUCGGUAGACAAGUUGGUUUAAGGCGCAAGACUUUAAUUUAUCACUACGAAAUCUUGAGAUCGGGCGUUCGACUCGCCCCCGGGACAUUUUUUCCUCGAGCAA [C11A G88C]
CUCUCGGUAGACAAGUUGGUUUAAGGCGCAAGACUUUAAUUUAUCACUACGAAAUCUUGAGAUCGGGCGUUCGACUCGCCCCCGGGACGUUUUUUCCUCGAGCAA [C11A G88C A89G]
CUCUCGGUAGACAAGUUGGUUUAAGGCGCAAGACUUUAAUUUAUCACUACGAAAUCUUGAGAUCGGGCGUUCGACUCGCCCCCGGGAUAUUUUUUCCUCGAGCAA [C11A G88U]
CUCUCGGUAGACAAGAUGGUUUAUGGCGCAAGACUUUAAUUUAUCACUACGAAGUCUUGAGAUCGGGCGUUCGACUCGCCCCCGGGAGAUUUUUUCCUCGAGCAA [C11A U16A A24U A54G]
CUCUCGGUAGACAAGAAGGUUUAAGGCGCAAGACUUUAAUUUAUCACUACGAAAUCUUGAGAUCGGGCGUUCGGCUCGCCCCCGGGAGAUUUUUUCCUCGAGCAA [C11A U16A U17A A74G]
CUCUCGGUAGACAAGCUGGUUUAAGGCGCAAGACUUUAAUUUAUCACUACGAAAUCUUGAGAUCGGGCGUUCGACUCGCCCCCGGGAGGUUUUUUCCUCGAGCAA [C11A U16C A89G]
CUCUCGGUAGACAAGCUGGUUUAAGGCGCAAGACUUUAAUUUAUCACUACGAAAUCUUGAGAUCGGGCGUUCGACUCGCCCCCGGGAGUUUUUUUCCUCGAGCAA [C11A U16C A89U]
CUCUCGGUAGACAAGCUGGAUUAAGGCGCAAGACUUUAAUUUAUCACUACGAAAUCUUGAGAUCGGGCGUUCGACUCGCCCCCGGGAGAUUUUUUCCUCGAGCAA [C11A U16C U20A]
CUCUCGGUAGACAAGUGGGUUUAAGGCGCAAGACUUUAAUUUAUCACUACGAAAUCCUGAGAUCGGGCGUUCGACUCGCCUCCGGGAGAUUUUUUCCUCGAGCAA [C11A U17G U57C C81U]
CUCUCGGUAGACAAGUUGGGUUAAGGCGUAAGACUUUAAUUUAUCACUACGAAAUCUUGAGAUCGGGCGUUCGACUCGCCCCCGGGAAAUUUUUUCCUCGAGCAA [C11A U20G C29U G88A]
CUCUCGGUAGACAAGUUGGUCUAAGGCGCAAGACUUUAAUUUAUCACUACGAAAUCUUAAGAUCGGGCGUUCGACUCGCCCCGGGGAGAUUUUUUCCUCGAGCAA [C11A U21C G59A C83G]
CUCUCGGUAGACAAGUUGGUUACAGGCGCAAGACUUUAAUUUAUCACUACGAAAUCUUGAGAUCGGGCGUUCGACUCGCCCCCGGGAGAUUUUUUCCUCGAGCAA [C11A U22A A23C]
CUCUCGGUAGACAAGUUGGUUCAAGGCGCAAGACUUUAAUUUAUCACUACGAAAUCUUGAGAUCGGGCGUUCGACUCGCCCCCGGGAGAUUUUUUCCUCGAGCAA [C11A U22C]
CUCUCGGUAGACAAGUUGGUUCAAGGCGCAAGACUUUAAUUUAUCACUACGAAAUGUUGACAUCGGGCGUUCGACUCGCGCCCGGGAGAUUUUUUCCUCGAGCAA [C11A U22C C56G G61C C80G]
CUCUCGGUAGACAAGUUGGUUUAAGGCGCAAGACUUUAAUUUAUCACUACGAAAACUUGAGAUCGGGCGUUCGACUCGCCCCCGGGAGAUUUUUUCCUCGAGCAA [C11A U55A]
CUCUCGGUAGACAAGUUGGUUUAAGGCGCAAGACUUUAAUUUAUCACUACGAAAUCGUGAGAUCGGGCGUUCGACUCGCCCCCGGGAGAUUUUUUCCUCGAGCAA [C11A U57G]
CUCUCGGUAGACAAGUUGGUUUAAGGCGCAAGACUUUAAUUUAUCACUACGAAAUCUGGAGAUCGGGCGUUCGACUCGCCCCCGGGAGAUUUUUUCCUCGAGCAA [C11A U58G]
CUCUCGGUAGACAAGUUGGUUUAAGGCGCAAGACUUUAAUUUAUCACUACGAAAUCUGGAGAUCGGGCGUUCGACUCGCCCCCUGGAGAUUUUUUCCUCGAGCAA [C11A U58G G84U]
CUCUCGGUAGACAAGUUGGUUUAAGGCGCAAGACUUUAAUUUAUCACUACGAAAUCUUGAGAGCGGGCGUUCGACUCGCCCCCGGGAGAUUUUUUCCUCGAGCAA [C11A U63G]
CUCUCGGUAGACAAGUUGGUUUAAGGCGCAAGACUUUAAUUUAUCACUACGAAAUCUUGAGAUCGGGCGUCCGACUCGCCCCCGGGAGAUUUUUUCCUCGAGCAA [C11A U71C]
CUCUCGGUAGACAAGUUGGUUUAAGGCGCAAGACUUUAAUUUAUCACUACGAAAUCUUGAGAUCGGGCGUUCGACGCGCCCCCGGGUGAUUUUUUCCUCGAGCAA [C11A U76G A87U]
CUCUCGGUAGGCCAGUUGGUUUUAGGCGCAAGACUUUAAUUUAUCACUACGAAAUCUUGAGAUCGGGGGUUGAACUCCCCCCCAGGAGAUUUUUUCCUCGAGCAA [C11G A13C A23U C68G C72G G73A G78C G84A]
CUCUCGGUAGGCGAGUUGGUUUAUGGCGCAAGAGUUUAAUUUAUCACUACGAAAUCUUGAGAUCGGGCGUUCGACUCGCCCCCGGGAGAUUUUUUCCUCGAGCAA [C11G A13G A24U C34G]
CUCUCGGUAGGCUAGUUGGUUUAAGGCGCAAGACUUUAAUUUAUCACUACGAAGUCUUGAGCUCGGGAGUUCGACUCGCCCCCGGGAGAUUUUUUCCUCGAGCAA [C11G A13U A54G A62C C68A]
CUCUCGGUAGGCAGGUUGGUUUAAGGCGCAAGACUUUAAUUUAUCACUACGAAAUCUUGAUAUCGGGCGUUCGACUCGCCCCCGGAAGAUUUUUUCCUCGAGCAA [C11G A14G G61U G86A]
CUCUCGGUAGGCAUGUUGGUUUAAGGCGCAAGACUUUAAUUUAUCACUACGAAAUCUUGAGAACGGGCUUUCGACUCGCCCCCGGGAGAUUUUUUCCUCGAGCAA [C11G A14U U63A G69U]
CUCUCGGUAGGCAAGUUGGUUUCAGGCGCAAGACUUUAAUUUAUCACUACGAAAUCUUGAGAUCGGGCGUUCGACUCGCCCCCGGGAGAUUUUUUCCUCGAGCAA [C11G A23C]
CUCUCGGUAGGCAAGUUGGUUUCGCGCGCAAGAUGUUAAUUUAUCACUACGAAAUCUUGAGAUCGGGCGUUCGACUCGCCCCCGGGAGAUUUUUUCCUCGAGCAA [C11G A23C A24G G25C C34U U35G]
CUCUCGGUAGGCAAGUUGGUUUUAGGCCCAAGACUUUAAUUUAUCACUACGAAAUCUUGAGAUCGGGCGUACGACUCGCCCCCGGGAGAUUUUUUCCUCGAGCAA [C11G A23U G28C U71A]
CUCUCGGUAGGCAAGUUGGUUUACGGCGCAAGACUUUAAUUUAUCACUACGAAAUCUUGAGAUCGGGCGUUCGACUCGCCCCAGGGAGAUUUUUUCCUCGAGCAA [C11G A24C C83A]
CUCUCGGUAGGCAAGUUGGUUUAGGGCGCAAGACUUUAAUUUAUCACUACGAAAUCUUGAGAUCGGGCGUUCGGCUCGCCCCCGGGAGAUUUUUUCCUCGAGCAA [C11G A24G A74G]
CUCUCGGUAGGCAAGUUGGUUUAGGGCGCAAGACUUUAAUUUAUCACUACGAAAUCUUGAGAUCGGGCGUUCGUCUCGCCCCCGGGAGAUUUUUUCCUCGAGCAA [C11G A24G A74U]
CUCUCGGUAGGCAAGUUGGUUUAGGGCGCAAGACUUUAAUUUAUCACUACGAAAUCUUGAGAUCGGGUGCUGGACUGGCCCCCGGGAGAUUUUUUCCUCGAGCAA [C11G A24G C68U U70C C72G C77G]
CUCUCGGUAGGCAAGUUGGUUUAUGGCGCAAGACUUUAAUUUAUCACUACGAAAUCUUGAGAUCGGGUGUUCGACUCGCCCCCGGGAGAUUUUUUCCUCGAGCAA [C11G A24U C68U]
CUCUCGGUAGGCAAGUUGGUUUAAGGCGCUAGACUUUAAUUUAUCACUACGAAAUCUUGAGAUCGGGCGUUCGACUCGCCCCCGGGAGAUUUUUUCCUCGAGCAA [C11G A30U]
CUCUCGGUAGGCAAGUUGGUUUAAGGCGCUAGACAUUAAUUUAUCACUACGAAUUCUUGAGAUCGGGCGUUCGACUCGCCCCCGGGAGAUUUUUUCCUCGAGCAA [C11G A30U U35A A54U]
CUCUCGGUAGGCAAGUUGGUUUAAGGCGCAGGACUUUAAUUUAUCACUACGAAAUCUUGAGAUCGGGCGUUCGACUCGCCCCCGGGAGAUUUUUUCCUCGAGCAA [C11G A31G]
CUCUCGGUAGGCAAGUUGGUUUAAGGCGCAAGACUUUAAUUUAUCACUACGAAGUCUUGAGAUCGGGCGUUCGACUCGCCCCCGGGAGAUUUUUUCCUCGAGCAA [C11G A54G]
CUCUCGGUAGGCAAGUUGGUUUAAGGCGCAAGACUUUAAUUUAUCACUACGAAUUCUUGAGAUCGGGUGUUCGACUCGCCCCCGGGAGAUUUUUUCCUCGAGCAA [C11G A54U C68U]
CUCUCGGUAGGCAAGUUGGUUUAAGGCGCAAGACUUUAAUUUAUCACUACGAAUUCUUGAGAUCGGGCGUUCGACUCGCGCCCGGGAGAUUUUUUCCUCGAGCAA [C11G A54U C80G]
CUCUCGGUAGGCAAGUUGGUUUAAGGCGCAAGACUUUAAUUUAUCACUACGAAAUCUUGCGAUCGGGCGUUCGACUCGCCCCCGGGAGAUUUUUUCCUCGAGCAA [C11G A60C]
CUCUCGGUAGGCAAGUUGGUUUAAGGCGCAAGACUUUAAUUUAUCACUACGAAAUCUUGGGAUCGGGCGUUCGACUCGCCCCCGGGAGAUUUUUUCCUCGAGCAA [C11G A60G]
CUCUCGGUAGGCAAGUUGGUUUAAGGCGCAAGACUUUAAUUUAUCACUACGAAAUCUUGUGCUCGGGCGUUCGACUCGGCACCCGGAGAUUUUUUCCUCGAGCAA [C11G A60U A62C C79G C81A G84C]
CUCUCGGUAGGCAAGUUGGUUUAAGGCGCAAGACUUUAAUUUAUCACUACGAAAUCUUGAGUUCGGGCGUUCGACUCGCCCCCGGGAGAUUUUUUCCUCGAGCAA [C11G A62U]
CUCUCGGUAGGCAAGUUGGUUUAAGGCGCAAGACUUUAAUUUAUCACUACGAAAUCUUGAGUUCGGGCGUUCGACUCGCCCCCGGGAAAUUUUUUCCUCGAGCAA [C11G A62U G88A]
CUCUCGGUAGGAAAGUUGGUUUAGGGCGCAAGACUUUAAUUUAUCACUACGAAAUCUUGAGAUCGGGCGUUCGACUCGCCCCCGGGAGAUUUUUUCCUCGAGCAA [C11G C12A A24G]
CUCUCGGUAGGGAAGUUGGUUUAAGGCGCAGGACUUUAAUUUAUCACUACGAAAUCUUGAGAUCGGGCGUUCCACUCGCCCCCGGGAGAUUUUUUCCUCGAGCAA [C11G C12G A31G G73C]
CUCUCGGUAGGUAAGUUGGUUUAAGGCGCAAGACUUUAAUUUAUCACUACGAAAUCUUGACAUCGGGCGUUCGACUCGCCCCCGGGAGAUUUUUUCCUCGAGCAA [C11G C12U G61C]
CUCUCGGUAGGCAAGUUGGUUUAAGGCGAAAGACUUUAAUUUAUCACUACGAAAUCUUGAGAUCGGGCGUUCGACUCGCCCCCGGGAGAUUUUUUCCUCGAGCAA [C11G C29A]

Source: the RNAGym collection of RNA variant scans (doi:10.1101/gad.245936.114)
